# The supplement of paper PMC4604168 (melanoma cell lines)
# Some of the results follow. Most values come without repeats; read them as rough.
# Legend:
# Assay in all cases: cell count relative to DMSO control; melanoma cells; higher = more viable cells
# Details in all cases: library dose: low library concentration; 72 h
# MZ2-MEL = test system: MZ2-MEL
# MeWo = test system: MeWo
# RPMI7951 = test system: RPMI7951
# RVH-421 = test system: RVH-421
# SkMel28 = test system: SkMel28
# SkMel2 = test system: SkMel2
# SkMel30 = test system: SkMel30
# SkMel5 = test system: SkMel5
# UACC257 = test system: UACC257
# UACC62 = test system: UACC62
# WM115 = test system: WM115
# WM1716 = test system: WM1716
# WM1745 = test system: WM1745
# WM3526 = test system: WM3526
# WM3619 = test system: WM3619
# WM451Lu = test system: WM451Lu
# 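Also: cell number obtained by counting DAPI-stained nuclei in high-throughput microscope images with image analysis software, screen run in 1,536-well plates.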
SMILES,cell count (MZ2-MEL) [%],cell count (MeWo) [%],cell count (RPMI7951) [%],cell count (RVH-421) [%],cell count (SkMel28) [%],cell count (SkMel2) [%],cell count (SkMel30) [%],cell count (SkMel5) [%],cell count (UACC257) [%],cell count (UACC62) [%],cell count (WM115) [%],cell count (WM1716) [%],cell count (WM1745) [%],cell count (WM3526) [%],cell count (WM3619) [%],cell count (WM451Lu) [%]
"CC[C@]1(O)C[C@H]2CN(CCc3c([nH]c4ccccc34)[C@@](C(=O)OC)(c3cc4c(cc3OC)N(C=O)[C@H]3[C@@](O)(C(=O)OC)[C@H](OC(C)=O)[C@]5(CC)C=CCN6CC[C@]43[C@@H]65)C2)C1 [vincristine] + CCCCCCCCCCCC1=C(O)C(=O)C=C(O)C1=O [Embelin] (first compound 0.0001 µM, partner dose 1.2 µM)",75.5,91.9,53.3,88.1,68.2,73.6,68.6,76.9,51.2,40.4,44.2,35.5,65,67.2,52.5,50.1
"Cc1cc(Nc2cc(N3CCN(C)CC3)nc(Sc3ccc(NC(=O)C4CC4)cc3)n2)n[nH]1 [Tozasertib] + O=C(O)c1ccc(-c2c[nH]c3ncc(-c4ccccc4)cc23)cc1C1CCCC1 [GSK650394] (first compound 0.006 µM, partner dose 0.16 µM)",102,90.2,96.3,89.9,94.1,92.1,113,106,100,88.1,99,89.4,99.7,86.2,85.3,103
"CC[C@]1(O)C[C@H]2CN(CCc3c([nH]c4ccccc34)[C@@](C(=O)OC)(c3cc4c(cc3OC)N(C=O)[C@H]3[C@@](O)(C(=O)OC)[C@H](OC(C)=O)[C@]5(CC)C=CCN6CC[C@]43[C@@H]65)C2)C1 [vincristine] + O=C(CCCCCCC(=O)Nc1ccccc1)NO [vorinostat] (first compound 0.0001 µM, partner dose 0.08 µM)",103,101,84.5,89.1,87,91.8,81.4,83.8,47.2,81.2,67.2,50.9,106,96.2,67.7,68
